Assay results from PubChem BioAssay AID686978 (National Center for Advancing Translational Sciences (NCATS), 2013).
Several values for one entry are separate records, joined by “and”; a condition that tells them apart may be missing. Identical values can stand only once. In all, about 420,000 compounds went through this assay and about 64,000 (15%) were called active. The shares of active, inactive and inconclusive entries below differ from those in the screen. Calls follow the shape of the dose curve; as a rule, active = well fitted inhibition curve with a large enough effect; inconclusive = small, poorly fitted or top-dose-only effect; inactive = flat fitted curve, though single readings scatter. Where the call is inconclusive, the potency comes from a doubtful curve fit.

assay: qHTS for Inhibitors of human tyrosyl-DNA phosphodiesterase 1 (TDP1): qHTS in cells in absence of CPT; conditions: DT40 Tdp1-/- hTDP1 cells, no CPT, ATP luminescence, 48 h; activity change, negative = growth inhibition: at 46.2 µM (top of the series) unless noted; also: nearly all actives have a fitted effect of over 55% in size
Summary of the method: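 Compound effects on proliferation are scored in DT40 Tdp1-/-;hTDP1 cells in the absence of CPT. ATP levels (CellTiter-Glo luminescence) are recorded after a ≥48 hr, 37 °C incubation.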
% is scaled to controls: 0 for no effect and ±100 for the full control effect; potency is read from the fitted curve at half-maximal effect; tags tell the direction and shape of the fitted curve.

Q: With COc1cccc(N2CC(C(=O)Nc3nnc(SCc4cccnc4)s3)CC2=O)c1 (stereo not given) as the compound, how does the activity change, negative = growth inhibition read?
A: Its activity change, negative = growth inhibition is inconclusive: -52.7% [inhibitor].

Q: With Cc1ccccc1CN1CCC(Oc2ccc(C(=O)NCc3ccccn3)cc2)CC1 as the compound, how does the Potency read?
A: The Potency was inconclusive: 18.4 µM [inhibitor, single point].

Q: With c1ccc(N2CCOCC2)c(Nc2nc3ccccc3n3cnnc23)c1 as the compound, how does the Potency read?
A: The Potency was active: 16.4 µM.

Q: Which Potency does the source give for COc1ccc(OC)c(-c2ccc(O)c(CN3CCc4c([nH]c5ccccc45)C3)c2)c1 here?
A: The Potency was inconclusive: 23.1 µM [inhibitor, single point].

Q: For O=C(CCNS(=O)(=O)c1ccccc1)N1CCN(c2ccccc2F)CC1, which Potency is on record?
A: The Potency was inconclusive: 13 µM [inhibitor, partial curve, poor fit].

Q: With CCCSC1=NC2(CCN(C(=O)NC3CCCCC3)CC2)N=C1c1ccc(C)cc1 as the compound, how does the Potency read?
A: The Potency was “inactive”.

Q: For COc1cc(O)c2c(=O)cc(-c3ccccc3)oc2c1, which Potency is on record?
A: Its Potency is “inactive and inconclusive: 8.2 µM [inhibitor, partial curve]”.

Q: Which Potency does the source give for O=C(O)c1ccc2c3c(cccc13)C(=O)N(c1ccccc1)C2=O here?
A: Its Potency is “inactive”.

Q: Which Potency does the source give for O=C(NNC(=O)c1cccc(Br)c1)Nc1ccc(Cl)cc1 here?
A: Its Potency is inconclusive: 20.6 µM [inhibitor, single point].

Q: With CCCn1nc(C(=O)Nc2cccc(S(=O)(=O)N3CCOCC3)c2)c2ccccc2c1=O as the compound, how does the Potency read?
A: Its Potency is active: 25.9 µM.

Q: Which Potency does the source give for CN1CCN(c2nc(NCCOC34CC5CC(CC(C5)C3)C4)nc(OCC(F)(F)F)n2)CC1 here?
A: The Potency was inconclusive: 25.9 µM [inhibitor, single point].

Q: Which Potency does the source give for CCOc1ccc(CC(=O)Nc2cc(=O)n(C)c(=O)n2C)cc1 here?
A: The Potency was inconclusive: 23.1 µM [inhibitor, single point].

Q: With COc1cccc(S(=O)(=O)N(C)C[C@H]2OCc3cnnn3CCCC(=O)N([C@H](C)CO)C[C@H]2C)c1 as the compound, how does the Potency read?
A: The Potency was “inactive”.

Q: With Cc1ccc(C)c(OCc2nc3ccccc3n2C)c1 as the compound, how does the Potency read?
A: The Potency was inconclusive: 29.1 µM [inhibitor, single point].

Q: With Cc1ccc(S(=O)(=O)N(C)C[C@H]2Oc3ncc(-c4ccccc4)cc3C(=O)N([C@@H](C)CO)C[C@@H]2C)cc1 as the compound, how does the Potency read?
A: The Potency was active: 13 µM.

Q: With CC[C@@H](C)[C@@H](C(=O)N1CCN(C(=O)OC(C)(C)C)CC1)n1cc(CCCCNC(=O)OC(C)(C)C)nn1 as the compound, how does the Potency read?
A: Its Potency is active: 13 µM.

Q: With Cc1ccc(-n2nc(C)c3c2C(Br)C(C)(C)CC3=O)nc1 (stereo not given) as the compound, how does the Potency read?
A: The Potency was “inactive”.

Q: With N#C/C(=N\Nc1c(Cl)cccc1Cl)C(=O)NN as the compound, how does the Potency read?
A: The Potency was “inactive”.

Q: Which Potency does the source give for CC1(C)C(C=C(Cl)Cl)C1C(=O)Nc1ccc([N+](=O)[O-])cc1 (stereo not given) here?
A: The Potency was active: 16.4 µM.

Q: With C=C(C)[C@@H]1C2=CC(C(=O)OC)=C(C[C@@H](C(=C)C)[C@H]3O[C@H]3C3=C[C@H]1OC3=O)O2 as the compound, how does the Potency read?
A: The Potency was active: 1.12 µM.

Q: For COc1ccc([C@H]2CC(=O)C=C(c3ccccc3-c3ccccc3)C2)cc1, which Potency is on record?
A: The Potency was active: 23.1 µM.

Q: Which Potency does the source give for N#Cc1c(-c2ccccc2)c(-c2ccccc2)n(Cc2ccco2)c1NC(=O)c1cccs1 here?
A: Its Potency is inconclusive: 17.8 µM [inhibitor, single point].

Q: With CC(C)CC(=O)N1CC=CC[C@@H](c2ccc(Cl)cc2)N(Cc2ccc(Cl)cc2)C(=O)[C@@H]1Cc1ccccc1 as the compound, how does the Potency read?
A: Its Potency is active: 13 µM.

Q: With Cc1ccccc1C1c2[nH]c3ccccc3c2C[C@H]2C(=O)N(c3ccccc3C(=O)NCCN3CCOCC3)C(=O)N12 (stereo not given in full) as the compound, how does the Potency read?
A: The Potency was inconclusive: 29.1 µM [inhibitor, single point].

Q: For CC(C)c1[nH]nc2c1C(c1ccc(OC(=O)c3ccco3)cc1)C(C#N)=C(N)O2 (stereo not given), which Potency is on record?
A: Its Potency is “inactive”.

Q: For Cc1cccc(NC(=O)COc2cccc3c2CCN(C)C3=O)c1C, which Potency is on record?
A: Its Potency is inconclusive: 23.1 µM [inhibitor, single point].

Q: For Cc1cc(-c2nnc(CCC(=O)N(CC3CCC3)CC3CCCO3)o2)no1 (stereo not given), which Potency is on record?
A: The Potency was “inactive”.

Q: For CC1=CC2=NC(=O)/C(=C\c3cccn3CCOc3ccccc3)C(=N)N2O1, which Potency is on record?
A: The Potency was inconclusive: 20.6 µM [inhibitor, single point].

Q: For Cc1ccccc1OCC(=O)NCC(c1cccs1)N1CCOCC1 (stereo not given), which Potency is on record?
A: Its Potency is inconclusive: 18.4 µM [inhibitor, single point].

Q: Which Potency does the source give for COc1ccc2oc(=Nc3cc(F)ccc3F)c(C(N)=O)cc2c1 here?
A: The Potency was active: 4.61 µM.

Q: Which Potency does the source give for CC1c2cc3c(cc2CCN1C(=O)c1ccc(Br)cc1)OCCCO3 (stereo not given) here?
A: The Potency was active: 7.31 µM.

Q: For Cc1c(Cc2ccccc2)sc(/N=C/c2ccc3ccccc3c2)c1C(N)=O, which Potency is on record?
A: Its Potency is active: 0.82 µM.

Q: Which Potency does the source give for CC1CCCCC1NC(=O)C1CCN(C(=O)c2sccc2-n2cccc2)CC1 (stereo not given) here?
A: Its Potency is inconclusive: 29.1 µM [inhibitor, single point].

Q: For CCOC(=O)c1[nH]c2c(c1Cc1ccccc1)C(=O)CC(c1ccc(C(C)(C)C)cc1)C2 (stereo not given), which Potency is on record?
A: The Potency was inconclusive: 20.6 µM [inhibitor, single point].

Q: With COc1cc(/C=C/c2ccc3cccc(OC)c3n2)c(OC(C)=O)c([N+](=O)[O-])c1 as the compound, how does the Potency read?
A: Its Potency is active: 14.6 µM.

Q: Which Potency does the source give for COc1cc(C(=O)N/C(=C\c2cn(C)c3ccccc23)C(=O)NCCCN2CCOCC2)cc(OC)c1OC here?
A: The Potency was inconclusive: 29.1 µM [inhibitor, single point].

Q: With COc1ccccc1Cc1c(-c2ccc(F)cc2)nc2ccc(Br)cn12 as the compound, how does the Potency read?
A: The Potency was inconclusive: 29.1 µM [inhibitor, single point].

Q: For O=C(CN1C(=O)S/C(=C\c2ccc(F)cc2)C1=O)Nc1cccc(S(=O)(=O)NCc2ccco2)c1, which Potency is on record?
A: The Potency was inconclusive: 32.6 µM [inhibitor, single point].

Q: For O=C(O)c1ccc(O)cc1O, which Potency is on record?
A: The Potency was “inactive”.

Q: With CCN(CC)CCCNC(=O)c1sc2nc3n(c(=O)c2c1C)CCCCC3 as the compound, how does the activity change, negative = growth inhibition read?
A: The activity change, negative = growth inhibition was inconclusive: -10.5% [inhibitor].

Q: With CC(C)[C@@H](NC(=O)C1CCN(C(=O)[C@@H]2CCCN2C(=O)OC(C)(C)C)CC1)C(=O)NCc1ccc(F)cc1 as the compound, how does the Potency read?
A: Its Potency is “inactive”.

Q: Which Potency does the source give for C=CCn1c(SCc2csc(C)n2)nc2sc3c(c2c1=O)CCCC3 here?
A: Its Potency is inconclusive: 29.1 µM [inhibitor, single point].

Q: Which Potency does the source give for O=[N+]([O-])c1ccc(Nc2ccccc2)nc1 here?
A: Its Potency is inconclusive: 7.31 µM [inhibitor, partial curve].

Q: With CN(C)S(=O)(=O)c1cccc(NC(=O)COc2ccc(C(=O)c3ccccc3)cc2)c1 as the compound, how does the Potency read?
A: The Potency was active: 16.4 µM.

Q: With COc1ccc(-c2noc(CSc3nnc(Cc4ccccc4)n3-c3ccc(F)cc3)n2)cc1 as the compound, how does the Potency read?
A: The Potency was active: 16.4 µM.

Q: For CNC(=S)N1CCC(NC(=O)C(Cc2ccccc2)NC(C)=O)CC1 (stereo not given), which Potency is on record?
A: The Potency was “inactive”.

Q: With Cc1ccc(Cn2c(CN3CCC(C(=O)O)CC3)cc3ccccc32)cc1 as the compound, how does the Potency read?
A: Its Potency is “inactive”.

Q: Which Potency does the source give for CCN(CC)c1ccc(/C=N/N2C(=O)c3ccccc3C2=O)c(O)c1 here?
A: Its Potency is “inactive”.

Q: Which Potency does the source give for CCOc1ccccc1NC(=S)NC(=O)CCCOc1ccc(Cl)cc1Cl here?
A: The Potency was inconclusive: 25.9 µM [inhibitor, single point].

Q: Which Potency does the source give for O=C(O)CN1C(=O)SC(Nc2ccccc2C(=O)O)C1=O (stereo not given) here?
A: Its Potency is “inactive”.

Q: For CCc1ccc(NC(=O)CSc2nnc(CC)c(CC)n2)cc1, which Potency is on record?
A: Its Potency is inconclusive: 29.1 µM [inhibitor, single point].

Q: Which Potency does the source give for CC(C)c1ccc(S(=O)(=O)N2CCN(C(=O)CN3C(=O)NC4(CCCCC4)C3=O)CC2)cc1 here?
A: Its Potency is “inactive”.

Q: Which Potency does the source give for CCN(CC)S(=O)(=O)c1cc(-c2ccc(=O)n(C(C)C(=O)Nc3cccc(C#N)c3)n2)ccc1C (stereo not given) here?
A: The Potency was inconclusive: 23.1 µM [inhibitor, single point].

Q: With COC(=O)C1=C(C)N(CCc2ccc(OC)c(OC)c2)C(=O)/C1=C\N(C)C as the compound, how does the Potency read?
A: Its Potency is inconclusive: 23.1 µM [inhibitor, single point].

Q: For Cc1ccc(CNC(=O)c2ccc3c(c2)S(=O)(=O)c2ccccc2C3=O)o1, which Potency is on record?
A: The Potency was active: 16.4 µM.

Q: Which Potency does the source give for Cc1cc(C)cc(N(CC(=O)Nc2c(C)cc(C)cc2C)S(=O)(=O)c2c(C)nn(C)c2C)c1 here?
A: Its Potency is inconclusive: 23.1 µM [inhibitor, single point].

Q: Which Potency does the source give for O=C(NC1CCCC1)C(c1ccccc1)N(C(=O)c1csnn1)c1ccccc1F (stereo not given) here?
A: Its Potency is “inactive”.

Q: With COc1cc(C(=O)N2CCCCC2c2cc(C(=O)Nc3ccccc3)no2)cc(OC)c1C (stereo not given) as the compound, how does the Potency read?
A: The Potency was inconclusive: 23.1 µM [inhibitor, single point].

Q: With COc1ccccc1CNC(=O)COc1ccc([N+](=O)[O-])cc1 as the compound, how does the Potency read?
A: The Potency was inconclusive: 25.9 µM [inhibitor, single point].

Q: With COc1ccc(C(=O)Nc2nc3c(s2)Cc2c(Br)ccc(OC)c2-3)cc1OC as the compound, how does the Potency read?
A: Its Potency is inconclusive: 7.31 µM [inhibitor, partial curve].

Q: Which Potency does the source give for Cn1c2ccccc2c2cc(/C=N/NC(=O)c3cc(O)cc(O)c3)ccc21 here?
A: Its Potency is inconclusive: 20.6 µM [inhibitor, partial curve].

Q: Which Potency does the source give for COc1ccc(S(=O)(=O)N2CCCCCC2)cc1C(=O)N(C)CC(=O)Nc1c(Cl)cccc1Cl here?
A: Its Potency is inconclusive: 29.1 µM [inhibitor, single point].

Q: With Cc1ccc(-c2noc(C3CCCN(C(=O)c4ccc(Cl)cc4)C3)n2)o1 (stereo not given) as the compound, how does the Potency read?
A: Its Potency is active: 13 µM.

Q: For O=c1cc(-c2ccccc2)nc(Cc2c(Cl)cccc2Cl)[nH]1, which Potency is on record?
A: Its Potency is “inactive”.

Q: Which Potency does the source give for CC1(C)Cc2ccccc2C2=NNC(=O)C2=N1 here?
A: The Potency was active: 10.3 µM.

Q: With COc1ccc(CNC(=O)CCCn2ccc3cc(S(=O)(=O)N4CCCC4)ccc32)cc1 as the compound, how does the Potency read?
A: The Potency was active: 10.3 µM and active: 11.6 µM.

Q: Which Potency does the source give for CCN(CC)S(=O)(=O)c1cc(NC(=O)c2ccc(Br)s2)ccc1C here?
A: The Potency was active: 16.4 µM.

Q: With CCOc1cc(-c2nnc(SCC(=O)NC3CCCCC3)nc2-c2ccc(OC)c(OCC)c2)ccc1OC as the compound, how does the Potency read?
A: Its Potency is inconclusive: 25.9 µM [inhibitor, single point].

Q: With COc1ccc2c(c1)c1ncn(CCc3ccccc3)c(=O)c1n2C as the compound, how does the Potency read?
A: Its Potency is inconclusive: 16.4 µM [inhibitor, single point].

Q: With COc1cccc(NC(=O)CN2C(=O)CSc3ccc(S(=O)(=O)N4CCCCC4)cc32)c1 as the compound, how does the Potency read?
A: Its Potency is inconclusive: 9.2 µM [inhibitor, partial curve].
